In the supplement of paper PMC10126150 one finds switch fluorescence ratio data, which are given here for 67 sequences.

The data set deals with ATP. Put plainly: switch fluorescence ratio, 500 uM ATP over buffer (Cy3 cluster intensity, sum of 5 cycles each) (fold (ratio)); higher = stronger signal-on switching upon ATP binding; sequences stand for … in TCGTCGGCAGCGTCAGATGTGTATAAGAGACAGTTTTTTTTTTTTTTTTTTTTTTTTT…TC. As to conditions: aptamer strand: ATP DNA aptamer (quencher-CACCTGGGGGAGTATTGCGGAGGAAGG + anchor), 100 nM annealed; ATP concentration: 500 uM; one replicate. An outline of the steps:
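Imaging in selection buffer was followed by imaging after 15 min with 500 uM ATP at 22 °C, for Cy3-labelled switching-strand clusters annealed to 100 nM quencher-labelled ATP aptamer on a modified Illumina MiSeq flow-cell. Five of these buffer/ATP cycles ran, separated by NaOH stripping and re-annealing. The fluorescence ratio per cluster is summed target-cycle over summed buffer-cycle Cy3 intensity, averaged per switch-domain sequence; clusters outside 100-1000 RFU were removed.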

Sequences with one replicate were seen in a single cluster, so their values are uncertain.
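Also: ATP exposure 15 min at 22 °C before imaging.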

Take ATTGGGCCTC: the switch fluorescence ratio stood at 1.02. Consider CAAAAGCTTT, for which the switch fluorescence ratio is 1.18. The value for GGAGGCCCTT was 1; that for ATTGACCCGC was 1.09; that for TTGTGAAGTA was 0.976. With ACCCGGAGAA, the switch fluorescence ratio turned out to be 1.09. Then ACCATGCAGC, with 1.05; and AGTTAGTC, with 1.01; and CTCGGAGGCT, with 1.03.

For AATACCGGCG, the switch fluorescence ratio is 1.03. The value for GCTAATTGTT was 1.01. Then CTAACTTCGC, with 1.64; and CAAGTAGGAT, with 1.01. As to GCTAGCTTGT, the switch fluorescence ratio was found to be 1.02. Then AGTATCTTAT, with 0.969. The value for TATTCCTCT was 1.01. Then CGAGGGGTCT, with 0.969. Take CATAAAAGTC: the switch fluorescence ratio came out at 0.952. The value for GTATGTCTGG was 0.947; that for TACGTGCTGC was 0.963; that for TGCAGGGCCC was 1.04. The value for TCCTAAGTGA was 1.24; that for GAACTGGCAC was 1.06; that for GTACAACGTA was 0.985. Then TATCTATCGC, with 1.02; and CAGTAAAGGT, with 0.981; and AACCGGTCCT, with 1.15. Take TGAGTCCCCA: the switch fluorescence ratio worked out at 1.02. The value for ATCTAATAAA was 1.02. Consider CCAGGCCCGT, for which the switch fluorescence ratio is 0.99.

As for AAGTGTGTAC, the switch fluorescence ratio worked out at 0.986.

Regarding TGAGTTCCCT, the switch fluorescence ratio was 1.03.

Regarding ACTCATCATG, the switch fluorescence ratio was 1.02. The value for TATGTTATAG was 1.03; that for CGTGGCCACT was 0.965; that for TGTTTGTT was 0.981. Then AAAGAAGTGC, with 1.11; and CAACTGGTGG, with 1; and GAGTCTACGA, with 0.992.

Take CGGCGAGTAG: the switch fluorescence ratio is 1.02.

With ATGAAAGGTG, the switch fluorescence ratio came to 1.25.

As for CGGCACTTCT, the switch fluorescence ratio is 1.06.

As for TATGCCGAAT, the switch fluorescence ratio was 0.985.

CCGTTTAGTA: the switch fluorescence ratio was determined as 1.02. Take AAAGAGAGGC: the switch fluorescence ratio turned out to be 1.01. The value for CAGGCTATCT was 0.991. Then TTAGCGACCC, with 1.45; and TAAACGACCA, with 1.07; and ACACGGAGTA, with 1.02. The value for TGAGATTCCC was 1. Take GAGCGGCAG: the switch fluorescence ratio is 0.99. The value for TGTTGGGGTC was 0.996. Then TGCTACTTT, with 0.987; and ATCGCCGGAA, with 1.09. Then GGCGAGTTCT, with 0.984; and TAGGGATGTC, with 1.01. Regarding AAGCTTACGC, the switch fluorescence ratio is 1.07. On to GTCACAATG, for which the switch fluorescence ratio is 1.06. The value for CCAACGGCCC was 1.1; that for AAACCTGGGG was 1.04; that for GTGATGCTGG was 0.979. Then CGGAAATTAC, with 1.24; and TTTTGCTGGC, with 1.18. Turning to CTGCCAGCGT, the switch fluorescence ratio worked out at 1.04. Consider CGCGAACACC, for which the switch fluorescence ratio came to 1.11. Then CGCTCTTCGG, with 1.01.

With GACGCGATTT, the switch fluorescence ratio worked out at 2.31.
